In PMC4336329 (PLoS ONE, 2015):
About 2,200 (0.71%) of roughly 310,000 compounds showed an effect of 50% or more. Effects have a minus sign here. The list shows a part of the results.

Target: human ether-à-go-go-related gene (hERG) potassium channel (human, UniProt Q12809)
Experiment: primary screen, population patch clamp on CHO cells stably expressing hERG

Chain of human ether-à-go-go-related gene (hERG) potassium channel (Q12809 whole entry, looked up): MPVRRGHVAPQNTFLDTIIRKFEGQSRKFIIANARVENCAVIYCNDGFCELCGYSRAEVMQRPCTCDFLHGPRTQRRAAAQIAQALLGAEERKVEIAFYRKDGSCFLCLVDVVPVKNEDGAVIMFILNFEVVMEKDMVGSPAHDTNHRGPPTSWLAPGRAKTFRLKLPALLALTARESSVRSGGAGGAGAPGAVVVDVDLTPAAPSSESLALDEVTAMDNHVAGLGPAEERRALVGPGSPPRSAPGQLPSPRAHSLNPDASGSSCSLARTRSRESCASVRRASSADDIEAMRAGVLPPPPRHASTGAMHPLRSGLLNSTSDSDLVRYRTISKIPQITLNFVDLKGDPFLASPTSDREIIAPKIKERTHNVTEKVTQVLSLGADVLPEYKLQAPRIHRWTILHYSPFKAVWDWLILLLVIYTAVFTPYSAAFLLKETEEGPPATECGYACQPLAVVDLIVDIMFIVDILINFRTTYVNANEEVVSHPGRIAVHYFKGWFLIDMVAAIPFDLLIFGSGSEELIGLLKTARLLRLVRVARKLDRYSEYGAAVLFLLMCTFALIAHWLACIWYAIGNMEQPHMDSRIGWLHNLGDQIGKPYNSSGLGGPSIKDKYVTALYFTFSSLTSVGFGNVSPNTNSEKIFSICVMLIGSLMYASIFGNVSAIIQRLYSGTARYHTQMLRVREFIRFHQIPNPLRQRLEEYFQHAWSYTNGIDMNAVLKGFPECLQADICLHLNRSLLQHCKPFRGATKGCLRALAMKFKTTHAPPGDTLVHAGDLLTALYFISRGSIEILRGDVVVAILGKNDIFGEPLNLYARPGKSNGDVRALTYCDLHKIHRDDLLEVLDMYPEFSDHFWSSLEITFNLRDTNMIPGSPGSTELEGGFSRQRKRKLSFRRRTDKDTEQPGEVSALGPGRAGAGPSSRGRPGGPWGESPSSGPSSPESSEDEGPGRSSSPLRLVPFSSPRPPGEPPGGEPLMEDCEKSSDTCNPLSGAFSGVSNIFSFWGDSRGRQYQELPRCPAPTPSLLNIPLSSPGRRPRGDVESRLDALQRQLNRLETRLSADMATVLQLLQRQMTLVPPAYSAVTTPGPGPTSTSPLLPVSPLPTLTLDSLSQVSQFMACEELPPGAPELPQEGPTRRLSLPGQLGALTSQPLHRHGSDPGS

In order of falling “hERG current change (%, negative = inhibition) at 1uM” value:
1. C[C@]12C=CC(=O)C=C1CC[C@@H]1[C@@H]2[C@@H](O)C[C@@]2(C)[C@H]1CC[C@]2(O)C(=O)COC(=O)CCC(=O)[O-].[Na+]  22.5%
2. C[C@@H](C(=O)Nc1ccc2c(c1)OCCO2)n1nnc2ccccc2c1=O  21.9%
3. Cc1cc(C(=O)Nc2sc(C)c(-c3ccc(F)cc3)c2C(N)=O)no1  19.5%
4. Nc1ccc(Br)cc1C(NCC(=O)O)c1ccccc1 (centres unmarked)  18.5%
5. CC(C)(NC(=O)c1cc(Cl)c2ccccc2c1O)C(=O)O  17.9%
6. Cc1c(C(=O)NCc2cccs2)oc2ccc(Br)cc12  17.5%
7. Cc1cc(=O)oc2cc3c(cc12)OCCO3  16.7%
8. COc1ccc(C(NC(=O)C(C)C)c2c(O)ccc3ccccc23)cc1 (centres unmarked)  16%
9. Cn1c(C(N)=O)cnc1Sc1ncc(C(F)(F)F)cc1Cl  15.1%
10. COc1cc2c(cc1OC)CN(C(=O)c1ccc(S(=O)(=O)N3CCCCCC3)cc1)CC2  15.1%
11. COC(=O)c1ccc(C(=O)OC)c(NC(=O)Oc2ccccc2)c1  14.4%
12. CC(=O)Nc1ccc(NC(=O)CSc2ccc([N+](=O)[O-])cn2)cc1  13.1%
13. Cc1ccc(C)c(N2CCN(C(=O)CC3Sc4ccccc4NC3=O)CC2)c1 (centres unmarked)  13%
14. O=C(O)c1ccc(N2CCCC2=O)cc1  12.5%
15. CCNc1nc(Cl)nc(NC(C)C)n1  12.2%
16. CCOc1ccc(CNc2ccc(N3CCN(Cc4ccccc4)CC3)cc2)cc1  12%
17. Cc1cnc(CNC(=O)CC2C(=O)NCCN2Cc2ccccc2F)cn1 (centres unmarked)  11.7%
18. CCn1c(-c2c[nH]c3ccccc23)n[nH]c1=S  11.5%
19. CCOCCn1[nH]c2ccccc2c1=O  10.5%
20. CC(=O)NNc1[nH]c2c(c(=O)c1[N+](=O)[O-])c(=O)n(C)c(=O)n2C  9.85%
21. O=C(COC(=O)Cc1ccsc1)Nc1ccc(Br)cc1  9.81%
22. O=C(COC(=O)c1ccc(Cl)cc1[N+](=O)[O-])NC(=O)c1ccccc1  9.37%
23. Cc1ccc(Nc2c(-c3ccc(N4CCOCC4)cc3)nc3cnccn23)cc1  9.37%
24. O=C(C/C=N/OCc1ccc(F)cc1Cl)c1cnc(-c2ccccc2)s1  8.27%
25. CCCCCn1c(N)c(-c2nc3ccccc3s2)c2c([N+](=O)[O-])nn(CC)c(=O)c21  8.22%
26. CCN1CCCC1CNC(=O)C1CCCN(S(=O)(=O)c2cccc3nsnc23)C1 (centres unmarked)  7.09%
27. Cc1ccc(S(=O)(=O)N2CCN(C(=O)Cn3c(=O)oc4ccccc43)CC2)c(C)c1  6.44%
28. COC(=O)c1c(S(C)(=O)=O)nc(-c2ccccc2)[nH]c1=O  6.36%
29. CN(CC(=O)NCCC1=CCCCC1)S(=O)(=O)c1ccc2c(c1)CCC(=O)N2  6.24%
30. COc1ccc(CCNC(=O)c2ccc([N+](=O)[O-])cc2Cl)cc1OC  5.72%
31. COc1ccc(N2CCN(C(=O)CSc3nnc4c(C)cc5c(C)cc(C)cc5n34)CC2)cc1  5.3%
32. COc1cc(C)ccc1S(=O)(=O)N1CCN(C23CC4CC(CC(C4)C2)C3)CC1  4.7%
33. CC(C)CN(C(=O)COC(=O)CCC(=O)c1ccc(F)cc1)c1c(N)n(Cc2ccccc2)c(=O)[nH]c1=O  4.12%
34. CC12CCC3c4ccc(O)cc4CCC3C1CCC2=O (centres unmarked)  4%
35. O=C(CSc1cn(CCNC(=O)c2ccccc2)c2ccccc12)NCc1ccco1  3.25%
36. Cc1cc(NC(=O)CSc2n[nH]c(-c3ccc(Cl)cc3Cl)n2)no1  2.79%
37. COc1ccc(C(=O)N/C(=C/c2cccs2)C(=O)NCCCn2ccnc2)cc1OC  0.585%
38. Cc1nnc(Sc2nc3c(c(=O)[nH]c(=O)n3C)n2Cc2ccccc2)s1  0.495%
39. CCCS(=O)(=O)N1CCN(C(=O)c2cccs2)CC1  -0.379%
40. Cc1nc2sc(C(c3ccccc3)N3CCN(c4ccccc4F)CC3)c(O)n2n1 (centres unmarked)  -0.47%
41. O=C(c1cccs1)N1CCCC(c2ccccc2)C1 (centres unmarked)  -0.554%
42. Cc1ccccc1C(=O)Nc1ccc(S(=O)(=O)Nc2onc(C)c2C)cc1  -0.673%
43. CCN(CC)S(=O)(=O)c1ccc(C(=O)NC2=C(C(=O)OC)SCC2)cc1  -0.706%
44. Cc1ccc2nsnc2c1S(=O)(=O)N1CCCC1  -3.03%
45. CCn1c(SCC(=O)O)nnc1-c1ccc2[nH]c(C)c(C)c2c1  -3.32%
46. C=CCn1c(SCC(=O)Nc2ccccc2OC)nc(O)c(CC)c1=O  -4.87%
47. CN(C)CCCCOc1ccc(F)cc1.O=C(O)C(=O)O  -5.8%
48. CCC(COC(=O)Nc1cccc(C)c1C)NC(=O)OCC(C)C (centres unmarked)  -7.46%
49. Cc1nn(-c2ccccc2)c2sc(C(=O)OC3CCOC3=O)cc12 (centres unmarked)  -8.01%
50. O=C(O)C(=O)O.O=C(c1cccc(Cl)c1)N1CCN(CCCc2ccccc2)CC1  -14.9%
51. C=CCCC(=O)NC1CC(C)(C)Cc2c1cnn2-c1cccc(F)c1 (centres unmarked)  -17.4%
52. Br.COC(=O)CN1C(C)=Nc2ccc(Br)cc2C1c1ccccc1 (centres unmarked)  -18.3%
53. O=C(CNC(=O)c1ccco1)N=Nc1c(O)n(CCc2ccccc2)c2ccccc12  -25.6%
54. Cc1nnc2ccc(N3CCN(c4cccc(C(F)(F)F)c4)CC3)nn12  -28%
55. O=C(C[n+]1ccc(C(=O)NCc2ccccc2)cc1)c1ccc(Cl)cc1.[Br-]  -32.4%
56. COc1ccc(OCC(=O)N/N=C(\C)CC(=O)Nc2ccc(OC)cc2[N+](=O)[O-])cc1  -61.8%
